# Reference: the supplement of paper PMC4166925
# ± gives the standard deviation of the averaged measurements. In all, about 33,000 sequences were measured (“E-score (dimensionless, -0.5 to 0.5)”: median about -0.049, highest 2% from about 0.37 on). This is one part of the list.
# Test system: T1, PmTbr T-box DNA-binding domain (GST fusion)
# T1 sequence: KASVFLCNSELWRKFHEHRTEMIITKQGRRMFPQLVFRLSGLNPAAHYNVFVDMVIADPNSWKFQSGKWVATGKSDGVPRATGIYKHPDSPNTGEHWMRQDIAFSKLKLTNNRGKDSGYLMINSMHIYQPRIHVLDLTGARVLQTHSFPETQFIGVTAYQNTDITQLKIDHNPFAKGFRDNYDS
# Assay: PBM E-score of 8-mer (E-score (dimensionless, -0.5 to 0.5)); Tbr is Tbrain of the sea star Patiria miniata (Pm) or the sea urchin Strongylocentrotus purpuratus (Sp); higher = stronger binding preference; most listed sequences are background and not binding sites
# Details: the construct has about 5 more residues each side
# Outline: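 Expression of GST-fused Tbr T-box DNA-binding domains, each holding the full T-box plus roughly five flanking residues, was carried out in BL21 E. coli at 20 °C, with purification by glutathione affinity chromatography. Universal Agilent arrays made double-stranded by primer extension were incubated with the protein at 200 nM in PBS (pH 7.5), then scanned and quantified. All ungapped 8-mers were scored from probe intensities, and each received an enrichment E-score from the Universal PBM Analysis Suite, averaged over duplicate arrays.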
row,Sequence,PBM E-score of 8-mer
1,AACCGGCT,-0.286 ± 0.073
2,GTAAAATA,-0.199 ± 0.081
3,ATAGCTTG,-0.0506 ± 0.038
4,CTCGCCCC,0.166 ± 0.032
5,ATAATAAG,0.00809 ± 0.057
6,TAGTAAGA,-0.139 ± 0.021
7,AGGCTAAC,-0.0755 ± 0.026
8,CGGCGGTC,-0.245 ± 0.078
9,CCTCACTC,0.179 ± 0.0022
10,CAACACCC,0.444 ± 0.015
11,GTGTTGTA,0.326 ± 0.011
12,CTCCAGAA,-0.192 ± 0.047
13,ACATCTAT,0.022 ± 0.055
14,AACAAGTC,0.191 ± 0.0086
15,CTCGGGGA,-0.232 ± 0.058
16,AAGACATA,-0.145 ± 0.047
17,GGACATAA,-0.0609 ± 0.025
18,AGCACCCC,0.253 ± 0.013
19,GTGAGTTA,0.202 ± 0.017
20,AGTGATGA,0.224 ± 0.015
21,CGCGGGAA,0.093 ± 0.075
22,CAACTGAA,-0.0664 ± 0.016
23,ATGGGGCA,-0.25 ± 0.054
24,GGAGATCA,-0.174 ± 0.09
25,ACCCAGGC,-0.0912 ± 0.049

row,Sequence,PBM E-score of 8-mer
1,CCGCCGAA,-0.122 ± 0.0029
2,CTCGCAAG,0.2452 ± 0.001
3,AGTATTAA,-0.0194 ± 0.0096
4,CACGGGAC,-0.104 ± 0.02
5,GCCCAAGC,-0.211 ± 0.037
6,AATGCGAC,0.153 ± 0.019
7,GGTCGCCA,0.122 ± 0.015
8,GCTTGGAC,-0.253 ± 0.029
9,AGTAGCGC,0.238 ± 0.017
10,GCAGCCGC,-0.0665 ± 0.11
11,CTAAATTA,-0.0739 ± 0.067
12,AAAACTTG,-0.0815 ± 0.039
13,CGGGCCAC,-0.0526 ± 0.024
14,CCATCCTA,-0.144 ± 0.041
15,ATTAACCC,-0.0386 ± 0.022
16,ACTAGTGA,0.204 ± 0.058
17,TAGAATCA,-0.00571 ± 0.02
18,CTCCCTTA,0.0309 ± 0.049
19,CCCATGTC,-0.15 ± 0.056
20,CCCAATGA,-0.199 ± 0.0049
21,AAGGTGCT,0.441 ± 0.0066
22,TCGAAAGA,-0.172 ± 0.05
23,GACTAGGC,0.0128 ± 0.064
24,CTAAGCAC,-0.147 ± 0.06
25,CTCCATCC,-0.115 ± 0.11

row,Sequence,PBM E-score of 8-mer
1,AACAACCA,-0.135 ± 0.035
2,GGTATGGA,-0.109 ± 0.026
3,CATCACGG,0.156 ± 0.018
4,ACGCGTAG,0.175 ± 0.045
5,GGATCTAC,-0.243 ± 0.018
6,ATACAAGA,-0.104 ± 0.013
7,AACTGACC,-0.216 ± 0.038
8,CGATGTAA,-0.0196 ± 0.022
9,GTACTGAC,-0.0242 ± 0.035
10,GCGATTCC,0.0122 ± 0.027
11,ACATACCT,0.09862 ± 0.00018
12,CTTACAAG,-0.113 ± 0.063
13,AAATTTGA,-0.221 ± 0.11
14,CCCCGTTA,-0.029 ± 0.04
15,AGGAGGTC,-0.247 ± 0.02
16,CAGCCCAG,-0.223 ± 0.039
17,AACGCTCT,-0.119 ± 0.048
18,AACTACGG,-0.2468 ± 0.0016
19,CGATCTTC,-0.0801 ± 0.0027
20,AGATGGTC,-0.258 ± 0.0079
21,CAGAGTCA,-0.282 ± 0.044
22,TATTCCCA,-0.15 ± 0.029
23,CGGATCCG,-0.0771 ± 0.048
24,GGCCCTAA,-0.2803 ± 0.00044
25,TATAGGGA,-0.249 ± 0.013

row,Sequence,PBM E-score of 8-mer
1,AGCCGTTA,0.161 ± 0.0036
2,GCGGGTCA,0.0142 ± 0.11
3,CGGGCAGC,-0.0554 ± 0.0018
4,CACCCGCG,0.3 ± 0.034
5,CTAGTCAG,0.0144 ± 0.011
6,GCCGCGGA,-0.144 ± 0.13
7,GAGACTAA,-0.0557 ± 0.043
8,CCTAAGGA,-0.147 ± 0.024
9,AGGCGACT,-0.208 ± 0.02
10,CCCTATGC,-0.0548 ± 0.048
11,ACTTCGGA,0.0402 ± 0.032
12,AGAAAGCG,0.0425 ± 0.071
13,ACTCCCCA,0.0161 ± 0.0096
14,CCGCCCCA,-0.155 ± 0.064
15,AGTGTCTA,0.213 ± 0.017
16,CGTAATCA,0.0187 ± 0.0013
17,ATGGGTAA,-0.0443 ± 0.093
18,GTGGCAAC,0.321 ± 0.006
19,CTTACTCC,-0.136 ± 0.052
20,CAACACCG,0.3 ± 0.013
21,CTATAGTC,0.0257 ± 0.0081
22,ACTTACAA,-0.00796 ± 0.07
23,AAGAGTAA,-0.144 ± 0.0032
24,ATTCCTCG,-0.0674 ± 0.053
25,AACCGTAT,-0.12 ± 0.061

row,Sequence,PBM E-score of 8-mer
1,CAAACGGC,-0.0305 ± 0.062
2,AAGCTGAC,-0.0246 ± 0.033
3,CCGGCATC,-0.299 ± 0.01
4,ATTGAAGG,-0.107 ± 0.068
5,CCTGTGAC,0.309 ± 0.013
6,AGCGTAGC,-0.0635 ± 0.038
7,GAGATTGC,0.201 ± 0.018
8,CCTTCGTC,0.16 ± 0.011
9,CTCCGCCC,-0.11 ± 0.003
10,GCAGAGTA,-0.0658 ± 0.073
11,GAGTATTA,-0.102 ± 0.014
12,AATAGCGG,-0.0637 ± 0.035
13,ACCGCAGT,-0.195 ± 0.14
14,GAGCCCGA,-0.29 ± 0.0082
15,ACCGACCC,0.00535 ± 0.068
16,AAAAGGAC,-0.0773 ± 0.053
17,AACCACTG,-0.294 ± 0.0095
18,CCGAACCA,-0.102 ± 0.014
19,TCGGAGCA,-0.0542 ± 0.0025
20,AAATGCCG,0.0146 ± 0.012
21,CCCTCTAC,-0.151 ± 0.004
22,AATGATTC,-0.259 ± 0.021
23,AGCCCGCA,-0.0489 ± 0.053
24,ACCTGAGA,0.185 ± 0.024
25,GGACCCAC,-0.11 ± 0.12

row,Sequence,PBM E-score of 8-mer
1,CACGAGCG,0.0861 ± 0.0097
2,GGCACAAA,-0.184 ± 0.024
3,GACAAAGA,0.17 ± 0.068
4,CAGTGTAA,-0.0163 ± 0.029
5,CACTCCTC,0.233 ± 0.037
6,AGCTCCGG,-0.193 ± 0.064
7,CTACGACC,-0.416 ± 0.016
8,AACCATTA,-0.0792 ± 0.07
9,AGGAGCTC,-0.304 ± 0.028
10,CCGGTCTA,-0.167 ± 0.071
11,GAGGATGA,-0.0848 ± 0.045
12,AGACCATC,-0.269 ± 0.029
13,CAGGTCTA,-0.152 ± 0.069
14,ACGGAAGA,-0.124 ± 0.1
15,ATATTATA,-0.157 ± 0.025
16,ATACACCG,-0.00419 ± 0.051
17,AAGCGGCC,0.00238 ± 0.056
18,CGGCCTGA,-0.111 ± 0.027
19,CCGTACCG,-0.13 ± 0.044
20,ATTTAGAA,-0.16 ± 0.02
21,CTGGTCAA,-0.117 ± 0.004
22,CTAGACCA,-0.132 ± 0.0065
23,AAGTCTCA,0.106 ± 0.067
24,AACGCATC,-0.1209 ± 0.001
25,CTAATGAA,-0.131 ± 0.0059

row,Sequence,PBM E-score of 8-mer
1,AAAGATAG,-0.22 ± 0.0093
2,AGTTAAGC,-0.187 ± 0.051
3,ACTAACAC,0.412 ± 0.007
4,CGCGAAAA,0.359 ± 0.019
5,CCTAATCG,-0.0939 ± 0.05
6,CTTTTGAA,-0.235 ± 0.034
7,CTTGGAGA,0.0274 ± 0.0082
8,ATAATACG,-0.115 ± 0.035
9,CAGGCCCG,-0.108 ± 0.032
10,ACATACTG,0.188 ± 0.01
11,CACTCACG,0.179 ± 0.053
12,AACGGAAA,-0.2 ± 0.055
13,CGGTGCTC,-0.142 ± 0.053
14,AGTCTCGA,0.0498 ± 0.099
15,CTTCTCCC,-0.0169 ± 0.055
16,GTCCAGCA,-0.278 ± 0.015
17,CTGATACC,-0.0852 ± 0.013
18,CGGCGCTC,-0.00875 ± 0.12
19,TCGCGTAA,0.165 ± 0.013
20,AGAAATCG,0.0228 ± 0.017
21,GACTCATA,-0.131 ± 0.036
22,CTTTGTGA,0.028 ± 0.0037
23,CCTTCTCA,0.0208 ± 0.064
24,ACCCGGCC,-0.111 ± 0.024
25,AAAGAGTA,-0.0841 ± 0.045

row,Sequence,PBM E-score of 8-mer
1,AGCTTTGA,-0.203 ± 0.069
2,CGGAAGTC,-0.222 ± 0.029
3,CCTGAAAG,-0.2 ± 0.0059
4,GATTGGTA,-0.156 ± 0.024
5,AGGCAACG,0.0377 ± 0.055
6,GACCCCTC,-0.0517 ± 0.095
7,GACCACAC,0.198 ± 0.029
8,GCGCGCGC,0.0545 ± 0.0052
9,GGCCCTAC,-0.257 ± 0.08
10,CAGGGTAC,-0.0666 ± 0.085
11,CAGCCGGC,-0.0661 ± 0.03
12,AACCCGAT,0.0292 ± 0.021
13,AGAAGGCT,0.00817 ± 0.029
14,GGGAGTGA,0.221 ± 0.028
15,CTAACCAA,-0.135 ± 0.064
16,CCTGACCC,-0.188 ± 0.0044
17,CAGCGCTA,0.127 ± 0.046
18,TACGGTAA,-0.198 ± 0.065
19,CCTCGAAG,-0.0465 ± 0.028
20,AGGTTATA,0.0771 ± 0.0077
21,ATAAAGTC,-0.175 ± 0.031
22,CCGTAGTA,-0.0769 ± 0.078
23,GGCTTCAA,-0.121 ± 0.014
24,GCTGAACA,-0.128 ± 0.022
25,ATACTGAT,-0.0813 ± 0.025

row,Sequence,PBM E-score of 8-mer
1,ACAAAATA,0.017 ± 0.12
2,CCGAACAG,-0.1 ± 0.012
3,CGTGTAGC,-0.0922 ± 0.01
4,GATGAATC,-0.0796 ± 0.01
5,ACTCTAAC,-0.0797 ± 0.08
6,CTATACTC,-0.198 ± 0.0082
7,AGCCGCCC,-0.28 ± 0.029
8,CTCGCGGC,0.0944 ± 0.043
9,AGTCGCAC,0.395 ± 0.026
10,AATTCTTG,-0.0858 ± 0.019
11,CGATTCCC,-0.0208 ± 0.012
12,AGTGAGTG,0.0934 ± 0.016
13,ATCCCTTC,-0.218 ± 0.047
14,ACTCTCCA,-0.107 ± 0.026
15,AACGACGC,0.156 ± 0.024
16,CAACCCGC,0.0688 ± 0.0075
17,CGCCCAAA,-0.0907 ± 0.0051
18,CGCTGAAC,-0.00978 ± 0.092
19,GCCAGTGA,-0.0707 ± 0.048
